# Measurements reported in paper PMC12136788.
# The other results are listed elsewhere or left out.
# T1: UNK ZnF1-3 (human, UniProt Q9C0B0 31-174)
# T1 sequence: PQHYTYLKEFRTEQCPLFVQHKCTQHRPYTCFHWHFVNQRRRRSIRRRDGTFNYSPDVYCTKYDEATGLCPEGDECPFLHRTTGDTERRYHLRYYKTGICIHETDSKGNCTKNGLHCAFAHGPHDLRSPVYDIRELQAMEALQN
# B1: chr9:107755404:107755405:-_ENSMUSG00000032582_ENSMUST00000035201|mus_mus|motif|central (ssRNA)
# RNA: GGGAGUUCUACAGUCCGACGAUCCUCUAUAAUCCAUAGGAGUACCAUCUCCACCCCUGUAGUCCAUAGGUGGUCCUUCUCGGUCCCGAAAAUCCCCAGAAUGUAUGUCCCUGUUCCUGAAGUCCAACUGUGCUGAAUCUCUACCAACAGAGGAUUGAGCAUCA
# B2: chr11:50199487:50199488:+_ENSMUSG00000007850_ENSMUST00000069304|mus_mus|FALSE|FALSE (ssRNA)
# RNA: GGGAGUUCUACAGUCCGACGAUCGCUCAACAUUGAGCCUUCUUUGAGCGACGCCAAUGUUCACUUAAGAGCAGGCAUAAAACCACAAGGCUGGAUGGAUUGCAAAAUCUGUUAAACUGAGGGGUUUUUUAAAAAAUUUCUUUUCAACAGAGGAUUGAGCAUCA
# B3: chr1:39494564:39494565:+_ENSG00000168653_ENST00000372967|hu_hu|hu_hu_hu_mus_True|78_98 (ssRNA)
# RNA: GGGAGUUCUACAGUCCGACGAUCAUGCAUUCGCCUCAUCGUUUUCUACCGAAGCAAACACUCUACGAAGUCAUCGAACUCUAUCUUGCACUCCUUUUUCGCCCGGGUCCCACCGAUCCCGUGUGCACACUCUAUCCACUCUUUCAACAGAGGAUUGAGCAUCA
# B4: chr11:97546686:97546687:+_ENSMUSG00000038437_ENSMUST00000044730|mus_mus|motif|central (ssRNA)
# RNA: GGGAGUUCUACAGUCCGACGAUCUACGAACUGCCCUUCGUACAAAUAACAUCCGUUAUACAAAGAUACAAGACCCAGGCGGUGCACAAUUCCAGGCUUGGAGGUCGCAGGGGAACACCGUCUCUUGGGCUGAGGAUAUAAAGGCAACAGAGGAUUGAGCAUCA
# B5: chr4:95690885:95690886:+_ENSMUSG00000028572_ENSMUST00000156910|mus_mus|mus_mus_mus_hu_False|28_38 (ssRNA)
# RNA: GGGAGUUCUACAGUCCGACGAUCUUUAGAAAAUGUUAAAUACCAUGCUAAAAUAUUUUCAAAGGCUUAUUUUAUUUUACCAGAAGUCACAGGCAAGCAGACACCAUAAACAUACAAGAAAAUGAAACUCAACAAUAUAACUGUCAACAGAGGAUUGAGCAUCA
# B6: chr4:21667751:21667752:+_ENSMUSG00000028252_ENSMUST00000108240|mus_hu|motif|central (ssRNA)
# RNA: GGGAGUUCUACAGUCCGACGAUCUUCUAAUAUAUGAUUCAUCCUAUAAGGAAAUUCCUUUGGAAAGGCAUAUGAAAAUCGGGUUUUUAAUACAGAAGUAGCAGCAGCAAUCAAUCUUGUAUUUGAAACUACUCCAAAUUCCUCCAACAGAGGAUUGAGCAUCA
# B7: chr6:41757443:41757444:+_ENSG00000214736_ENST00000398881|hu_mus|hu_hu_hu_mus_False|18_58 (ssRNA)
# RNA: GGGAGUUCUACAGUCCGACGAUCGAACCGUGCAGAGGCAACAUCUCAGCCGACACUGGGGGAUGGGGGGGCAGUGGGAAACUAGGCAGGCAAGGAGAGGGAGUCAACUUCAGCUGCUCAAACUUCAGGAUCUUGUGGUCACAGCAACAGAGGAUUGAGCAUCA
# B8: chr17:49043493:49043494:-_ENSG00000008294_ENST00000510283|hu_mus|FALSE|FALSE (ssRNA)
# RNA: GGGAGUUCUACAGUCCGACGAUCUCGAUUUGUUCAUGAUAUACUGAAAUUUCCUAUUAACACUGGUGCAGUAAACUAGCUCGCUCCUCUGUAUUGUUACCAUAGAACAGAUUGUGUAAUAUAAAGGUAACAGGGGAAAAUGCUCAACAGAGGAUUGAGCAUCA
# B9: chr1:10024197:10024198:-_ENSMUSG00000025917_ENSMUST00000027050|mus_hu|motif|central (ssRNA)
# RNA: GGGAGUUCUACAGUCCGACGAUCGAGCAUCUGAGUACUAACAUCAAUCCCAGAAAGCCAGCAGCCAUAGCCAGGGUGGCGGUGAUACCACCCGAUUGCAUUUUCAAGGCGGCCAACCUGUUUUGCAUUUUCUAUGUAUGCAGCCAACAGAGGAUUGAGCAUCA
# B10: chr11:86510823:86510824:-_ENSMUSG00000047126_ENSMUST00000103186|mus_hu|motif|central (ssRNA)
# RNA: GGGAGUUCUACAGUCCGACGAUCAAUGGGUUGUGUCUCUGUAGCUUGUUCUUCUUCUUUUCUCAGUGAUUCUGAAGCAUCGGAUUUAUCCACCUUUGUCAAGUACUCCUUCAUGACCUGGAUGAAAUAGGGCAUGGCAAAAUCCAACAGAGGAUUGAGCAUCA
# B11: chr5:21408736:21408737:-_ENSMUSG00000042453_ENSMUST00000161356|mus_hu|mus_mus_mus_hu_False|48_78 (ssRNA)
# RNA: GGGAGUUCUACAGUCCGACGAUCGUUGACAGAGUUGUAGAUGGUGGCUUCAUGGAACUGGAACGGGGAGCAGCCAAUGCUGUUAGAAGAGGAAGGUAGGCACUGGGUCUGUACGAGCUGCCAGGAAUCCGAUCUUGCAUCCUUCAACAGAGGAUUGAGCAUCA
# B12: chr2:48026839:48026840:+_ENSG00000116062_ENST00000540021|hu_hu|hu_hu_hu_mus_False|8_58 (ssRNA)
# RNA: GGGAGUUCUACAGUCCGACGAUCAUAGUGAGCCACUAGCGUCCUAAAUCUGGAACAGUGGCGGUCAUCCGAAAACUGACCUAUGAAAAACUUGCCCAGUGAAGUGUCCACAAAGCAAACACCAUACGCACGAGUAUGACCAGACAACAGAGGAUUGAGCAUCA
# B13: chr8:26933331:26933332:-_ENSMUSG00000031575_ENSMUST00000166078|mus_hu|motif|central (ssRNA)
# RNA: GGGAGUUCUACAGUCCGACGAUCCUGGUGGAACUUGGUUCCCUUUUUGCUCCGCCAAGAAUAGCUAAAUUUAUCAUAACCGGAAGGAGCUUGAAGGUUUCCUAGGGGCUGGGACCAACCCAGUCUGGCAGCGGUAUCUGGUGGCAACAGAGGAUUGAGCAUCA
# B14: 77263223_77263343_1906_3pUTR_ENSMUSG00000037926_ENSMUST00000037912|mouse|control|control (ssRNA)
# RNA: GGGAGUUCUACAGUCCGACGAUCGUCUGUCUCCAGAUCUUCCACAGCUAAGUCUGGGAACUUGUUGGCAAUGUCUGGGGCCUGUCCAGGUUGGAGUAAGGCUUUAGACGCAUGGCAGUUGUCAAGAGGGAGUUUUGAUUCACUCAACAGAGGAUUGAGCAUCA
# Biological target: T1, UNK ZnF1-3
# Assay: nsRBNS (natural sequence RNA bind-n-seq); RBNS binding buffer (assumed for nsRBNS): 25 mM Tris pH 7.5, 150 mM KCl, 3 mM MgCl2, 0.01% Triton X-100, 500 ug/ml BSA, 20 U/ml SUPERase-In, 4 C; UNK is unkempt and MSI1 is Musashi-1; names of the RNAs are library labels; protein concentration not given here; high values mean tight binding
row,Binder,binding signal
1,B1,1.05 enrichment R
2,B2,2.25 enrichment R
3,B3,0.678 enrichment R
4,B4,0.853 enrichment R
5,B5,2.01 enrichment R
6,B6,0.883 enrichment R
7,B7,1.93 enrichment R
8,B8,0.976 enrichment R
9,B9,1.35 enrichment R
10,B10,0.706 enrichment R
11,B11,1.46 enrichment R
12,B12,1.14 enrichment R
13,B13,1.05 enrichment R
14,B14,0.793 enrichment R
